Measured values reported in patent publication US9579380B2, “Microporation of tissue for delivery of bioactive agents” (priority 1996, dated 2017).

Tested on: skin on the volar forearm of a human subject
Assay: Fluorescent dextran penetration into microporated skin, fluorescent video microscope
Conditions: 36 micropores, approximately 80 μm deep

distance of permeation from the nearest micropore (in one square cm, within 5 minutes): more than 2 mm
extent of fluorescent flush from the pores (10 minutes later): 10 mm
Substance: dextran
